Measurements published in the supplement of paper PMC8728848.
The other results are listed elsewhere or left out.

Legend:
Test in all cases: glycan array binding signal (z-score within array); higher = stronger binding
Conditions in all cases: glycan notation: IUPAC condensed, linker removed
Gal(b1-2)Gal = target: Gal(b1-2)Gal
How it was run: (§1)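 The Consortium for Functional Glycomics database supplied 3228 glycan arrays, of which those lacking an available protein sequence were dropped. The binding signal, a within-array Z-score, was averaged across arrays of the same protein sequence and across linkers. Negative scores can be read as non-binding.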

Gal(b1-3)Gal = target: Gal(b1-3)Gal
How it was run: as §1

Gal(b1-3)Gal(b1-4)GlcNAc = target: Gal(b1-3)Gal(b1-4)GlcNAc
How it was run: as §1

Gal(b1-3)GalNAc = target: Gal(b1-3)GalNAc
How it was run: as §1

[1] = target: Gal(b1-3)GalNAc(b1-3)Gal(a1-4)Gal(b1-4)Glc
How it was run: as §1

[2] = target: Gal(b1-3)GalNAc(b1-4)Gal(b1-4)Glc
How it was run: as §1

[3] = target: Gal(b1-3)GalNAc(b1-4)[Neu5Ac(a2-3)]Gal(b1-4)Glc
How it was run: as §1

Gal(b1-3)GlcNAc = target: Gal(b1-3)GlcNAc
How it was run: as §1

[4] = target: Gal(b1-3)GlcNAc(b1-2)Man(a1-3)[Gal(b1-3)GlcNAc(b1-2)Man(a1-6)]Man(b1-4)GlcNAc(b1-4)GlcNAc
How it was run: as §1

[5] = target: Gal(b1-3)GlcNAc(b1-3)Gal(b1-3)GlcNAc
How it was run: as §1

[6] = target: Gal(b1-3)GlcNAc(b1-3)Gal(b1-4)Glc
How it was run: as §1

[7] = target: Gal(b1-3)GlcNAc(b1-3)Gal(b1-4)GlcNAc
How it was run: as §1

[8] = target: Gal(b1-3)[Fuc(a1-4)]GlcNAc
How it was run: as §1

[9] = target: Gal(b1-3)[Fuc(a1-4)]GlcNAc(b1-3)Gal(b1-3)[Fuc(a1-4)]GlcNAc
How it was run: as §1

[10] = target: Gal(b1-3)[Fuc(a1-4)]GlcNAc(b1-3)Gal(b1-4)GlcNAc
How it was run: as §1

[11] = target: Gal(b1-3)[Fuc(a1-4)]GlcNAc(b1-3)Gal(b1-4)[Fuc(a1-3)]GlcNAc
How it was run: as §1

[12] = target: Gal(b1-3)[GlcNAc(b1-6)]GalNAc
How it was run: as §1

[13] = target: Gal(b1-3)[Neu5Ac(a2-6)]GalNAc
How it was run: as §1

[14] = target: Gal(b1-3)[Neu5Ac(a2-6)]GlcNAc(b1-6)Gal(b1-4)Glc
How it was run: as §1

[15] = target: Gal(b1-3)[Neu5Ac(b2-6)]GalNAc
How it was run: as §1

[16] = target: Gal(b1-4)GalNAc(a1-3)[Fuc(a1-2)]Gal(b1-4)GlcNAc
How it was run: as §1

[17] = target: Gal(b1-4)GalNAc(b1-3)[Fuc(a1-2)]Gal(b1-4)GlcNAc
How it was run: as §1

Gal(b1-4)Glc = target: Gal(b1-4)Glc
How it was run: as §1

Gal(b1-4)Glc6S = target: Gal(b1-4)Glc6S
How it was run: as §1

Gal(b1-4)GlcNAc = target: Gal(b1-4)GlcNAc
How it was run: as §1

[18] = target: Gal(b1-4)GlcNAc(a1-6)Gal(b1-4)GlcNAc
How it was run: as §1

[19] = target: Gal(b1-4)GlcNAc(b1-2)Man(a1-3)[Gal(b1-4)GlcNAc(b1-2)Man(a1-6)]Man(b1-4)GlcNAc(b1-4)GlcNAc
How it was run: as §1

[20] = target: Gal(b1-4)GlcNAc(b1-3)Gal(b1-3)GlcNAc
How it was run: as §1

[21] = target: Gal(b1-4)GlcNAc(b1-3)Gal(b1-4)Glc
How it was run: as §1

[22] = target: Gal(b1-4)GlcNAc(b1-3)Gal(b1-4)GlcNAc
How it was run: as §1

[23] = target: Gal(b1-4)GlcNAc(b1-3)Gal(b1-4)GlcNAc(b1-3)Gal(b1-4)GlcNAc
How it was run: as §1

[24] = target: Gal(b1-4)GlcNAc(b1-3)Gal(b1-4)[Fuc(a1-3)]GlcNAc(b1-3)Gal(b1-4)[Fuc(a1-3)]GlcNAc
How it was run: as §1

[25] = target: Gal(b1-4)GlcNAc(b1-3)GalNAc
How it was run: as §1

[26] = target: Gal(b1-4)GlcNAc(b1-3)[Gal(b1-4)GlcNAc(b1-6)]Gal(b1-4)GlcNAc
How it was run: as §1

[27] = target: Gal(b1-4)GlcNAc(b1-3)[GlcNAc(b1-6)]Gal(b1-4)GlcNAc
How it was run: as §1

[28] = target: Gal(b1-4)GlcNAc(b1-6)Gal(b1-4)GlcNAc
How it was run: as §1

[29] = target: Gal(b1-4)GlcNAc(b1-6)Gal(b1-4)GlcNAc(b1-6)GalNAc
How it was run: as §1

[30] = target: Gal(b1-4)GlcNAc(b1-6)GalNAc
How it was run: as §1

[31] = target: Gal(b1-4)GlcNAc(b1-6)[Gal(b1-3)]GalNAc
How it was run: as §1

Gal3S(b1-3)GalNAc = target: Gal3S(b1-3)GalNAc
How it was run: as §1

Gal3S(b1-3)GlcNAc = target: Gal3S(b1-3)GlcNAc
How it was run: as §1

[32] = target: Gal3S(b1-3)[Fuc(a1-4)]GlcNAc
How it was run: as §1

Gal3S(b1-4)Glc = target: Gal3S(b1-4)Glc
How it was run: as §1

Gal3S(b1-4)Glc6S = target: Gal3S(b1-4)Glc6S
How it was run: as §1

B1: Langerin CRD (Homo sapiens), Q9UJ71 (protein)
chain: QVVSQGWKYFKGNFYYFSLIPKTWYSAEQFCVSRNSHLTSVTSESEQEFLYKTAGGLIYWIGLTKAGMEGDWSWVDDTPFNKVQSVRFWIPGEPNNAGNNEHCGNIKAPSLQAWNDAPCDKTFLFICKRPYVPSEPSAWSHPQFEK
Gal(b1-2)Gal
  glycan array binding signal (z-score): -0.065
Gal(b1-3)Gal
  glycan array binding signal (z-score): -0.398
Gal(b1-3)Gal(b1-4)GlcNAc
  glycan array binding signal (z-score): -0.488
Gal(b1-3)GalNAc
  glycan array binding signal (z-score): -0.451
[1]
  glycan array binding signal (z-score): -0.482
[2]
  glycan array binding signal (z-score): -0.552
[3]
  glycan array binding signal (z-score): -0.617
Gal(b1-3)GlcNAc
  glycan array binding signal (z-score): -0.397
[4]
  glycan array binding signal (z-score): -0.416
[5]
  glycan array binding signal (z-score): -0.466
[6]
  glycan array binding signal (z-score): -0.48
[7]
  glycan array binding signal (z-score): -0.492
[8]
  glycan array binding signal (z-score): -0.279
[9]
  glycan array binding signal (z-score): -0.551
[10]
  glycan array binding signal (z-score): -0.566
[11]
  glycan array binding signal (z-score): -0.145
[12]
  glycan array binding signal (z-score): 0.442
[13]
  glycan array binding signal (z-score): -0.499
[14]
  glycan array binding signal (z-score): -0.538
[15]
  glycan array binding signal (z-score): -0.49
[16]
  glycan array binding signal (z-score): -0.316
[17]
  glycan array binding signal (z-score): 1.18
Gal(b1-4)Glc
  glycan array binding signal (z-score): -0.338
Gal(b1-4)Glc6S
  glycan array binding signal (z-score): -0.294
Gal(b1-4)GlcNAc
  glycan array binding signal (z-score): -0.18
[18]
  glycan array binding signal (z-score): -0.339
[19]
  glycan array binding signal (z-score): -0.275
[20]
  glycan array binding signal (z-score): -0.485
[21]
  glycan array binding signal (z-score): -0.492
[22]
  glycan array binding signal (z-score): -0.442
[23]
  glycan array binding signal (z-score): -0.662
[24]
  glycan array binding signal (z-score): -0.361
[25]
  glycan array binding signal (z-score): -0.345
[26]
  glycan array binding signal (z-score): -0.551
[27]
  glycan array binding signal (z-score): 0.314
[28]
  glycan array binding signal (z-score): -0.378
[29]
  glycan array binding signal (z-score): -0.586
[30]
  glycan array binding signal (z-score): -0.486
[31]
  glycan array binding signal (z-score): -0.489
Gal3S(b1-3)GalNAc
  glycan array binding signal (z-score): -0.432
Gal3S(b1-3)GlcNAc
  glycan array binding signal (z-score): -0.494
[32]
  glycan array binding signal (z-score): -0.296
Gal3S(b1-4)Glc
  glycan array binding signal (z-score): -0.325
Gal3S(b1-4)Glc6S
  glycan array binding signal (z-score): -0.45
